# Data published in paper PMC4336329 (PLoS ONE, 2015).
# Among all 310,000 compounds or so, about 2,200 (0.71%) showed an effect of 50% or more. Effects have a minus sign here. This is one part of the list.
# Target: human ether-à-go-go-related gene (hERG) potassium channel (human, UniProt Q12809)
# Assay: primary screen, population patch clamp on CHO cells stably expressing hERG
# human ether-à-go-go-related gene (hERG) potassium channel, sequence (Q12809 whole entry, looked up): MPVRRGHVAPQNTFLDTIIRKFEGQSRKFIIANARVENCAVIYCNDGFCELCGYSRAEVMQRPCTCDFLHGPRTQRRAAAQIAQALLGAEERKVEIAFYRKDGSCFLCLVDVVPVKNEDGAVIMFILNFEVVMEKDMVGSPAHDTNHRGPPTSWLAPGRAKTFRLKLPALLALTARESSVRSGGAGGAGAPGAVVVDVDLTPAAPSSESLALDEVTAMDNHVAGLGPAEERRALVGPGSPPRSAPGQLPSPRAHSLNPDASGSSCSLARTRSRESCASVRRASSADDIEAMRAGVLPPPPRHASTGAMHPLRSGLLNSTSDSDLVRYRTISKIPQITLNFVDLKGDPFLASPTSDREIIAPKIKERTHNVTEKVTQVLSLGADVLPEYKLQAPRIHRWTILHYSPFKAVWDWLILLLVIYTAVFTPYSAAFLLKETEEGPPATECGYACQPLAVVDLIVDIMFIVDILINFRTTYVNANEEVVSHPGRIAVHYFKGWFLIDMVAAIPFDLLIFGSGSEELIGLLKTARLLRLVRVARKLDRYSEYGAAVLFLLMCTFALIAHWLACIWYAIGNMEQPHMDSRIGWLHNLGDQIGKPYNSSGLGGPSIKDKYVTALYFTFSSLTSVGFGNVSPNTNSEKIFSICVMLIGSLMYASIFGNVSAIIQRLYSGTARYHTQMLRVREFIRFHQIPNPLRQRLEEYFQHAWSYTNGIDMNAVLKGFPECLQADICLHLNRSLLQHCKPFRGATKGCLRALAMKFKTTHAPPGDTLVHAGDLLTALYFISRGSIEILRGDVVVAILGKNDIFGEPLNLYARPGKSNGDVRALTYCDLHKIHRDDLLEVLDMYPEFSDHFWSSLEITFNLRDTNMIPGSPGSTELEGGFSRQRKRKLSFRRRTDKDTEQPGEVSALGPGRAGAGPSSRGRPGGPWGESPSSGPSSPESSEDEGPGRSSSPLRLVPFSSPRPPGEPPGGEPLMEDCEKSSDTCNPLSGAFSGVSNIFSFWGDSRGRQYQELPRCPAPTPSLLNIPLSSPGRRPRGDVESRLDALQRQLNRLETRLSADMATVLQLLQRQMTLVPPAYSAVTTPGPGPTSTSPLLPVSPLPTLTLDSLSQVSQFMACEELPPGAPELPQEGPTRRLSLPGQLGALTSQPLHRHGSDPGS
row,Compound,"hERG current change (%, negative = inhibition) at 1uM [%]"
1,O=c1[nH]c(/C=C2\C=Nc3ccccc32)c(O)n1Cc1ccccc1F,16.2
2,NC(=O)c1ccc(-c2ncc(-c3ccccc3)o2)cc1,7.69
3,N#C/C(=C\c1ccc(C(=O)O)cc1)S(=O)(=O)c1cc(Br)ccc1Br,11.8
4,CCCC(=O)c1c(NC)cc(C)oc1=O,5.97
5,CCN1CCN(CCC(=O)Nc2ccccc2C)CC1,0.723
6,CSc1ncccc1C(=O)Nc1nc2ccc(Oc3ccccc3)cc2s1,15.1
7,CCOC(=O)CN1C(=O)NC(C)(c2ccc(OC(F)F)cc2)C1=O (stereo not shown),-6.41
8,CCc1ccc(NC(=S)NCc2ccccc2)cc1,10.4
9,CCOc1ccccc1N1CCN(C(=O)c2cccc(-c3ccc(O)cc3)c2)CC1,10.1
10,O=C(N/N=C1\SCC(=O)N1CCc1ccccc1)c1cccs1,6.06
11,O=C(NCc1cccs1)c1ccc(Cl)s1,8.76
12,COc1ccccc1C(=O)NCCC(=O)Nc1cccnc1,9.13
13,Cn1cccc1/C=N/NC(=O)c1cccs1,7.85
14,O=C(O)CC(CC(=O)O)c1ccsc1,9.77
15,COc1ccc(CCNCc2cccc(C(F)(F)F)c2)cc1OC.O=C(O)C(=O)O,11.1
16,C=CCn1c(COc2ccc(F)cc2)nnc1SCC(=O)NC1CCS(=O)(=O)C1 (stereo not shown),3.46
17,Cc1ccc(Cn2c(SCC(=O)NCC3CCCO3)nc3ccsc3c2=O)cc1 (stereo not shown),-3.9
18,Cc1ccc(NC(=S)N2CCN(C(=O)c3ccccc3)CC2)c(C)c1,13.6
19,C[C@H](NC(N)=O)C(=O)Nc1ccc2c(c1)OCO2,13.3
20,CC1(NC(=O)Cc2ccc(S(=O)(=O)N3CCOCC3)s2)CCS(=O)(=O)C1 (stereo not shown),17.2
21,COc1ccc(N(CC(=O)N2CC=C(c3ccccc3)CC2)S(=O)(=O)c2c(C)noc2C)cc1,13.9
22,CCOc1ccccc1CNC(=O)C1CCCN(c2nnc(C)c3c(C)n(-c4ccccc4)nc23)C1 (stereo not shown),9.86

row,Compound,"hERG current change (%, negative = inhibition) at 1uM [%]"
1,CCOc1ncccc1C(=O)Nc1ccc(S(=O)(=O)NC2=NCCCCC2)cc1,8.54
2,COc1ccccc1NC(=O)CSc1nnc(-c2ccoc2C)n1CCc1ccccc1,-5.45
3,COc1ccc(-c2cc(=O)c3cc(OC)ccc3o2)cc1,14.4
4,CCC(=O)Nc1ccc(S(=O)(=O)Nc2ccc(Cl)nn2)cc1.Cl,10.2
5,N#Cc1ccc(S(=O)(=O)N2CCc3[nH]c4ccc(F)cc4c3C2)cc1,14.2
6,CC(=O)O[C@H]1C[C@@]2(C)[C@@H](C[C@@H](O)[C@H]3[C@@]4(C)CC[C@@H](O)[C@@H](C)[C@@H]4CC[C@@]32C)/C1=C(\CCC=C(C)C)C(=O)O,11.9
7,COc1ccccc1/C=C1/C(=O)N(c2ccccc2)N=C1C,-4.22
8,Cn1c(N)c(C(=O)COC(=O)CCc2ccccc2)c(=O)n(C)c1=O,-1.42
9,CCOc1ccc(C2=CSC3=NCCN23)cc1[N+](=O)[O-],-61
10,O=C(Nc1ccc(Oc2ccccc2)cc1)C1CC1,8.93
11,CCC(C)NC(=O)CNC(=S)N(CCCN1CCOCC1)Cc1cccs1 (stereo not shown),4.34
12,CCCCn1c(N)c(N(CCC(C)C)C(=O)C(C)N2C(=O)c3ccccc3C2=O)c(=O)[nH]c1=O (stereo not shown),5.4
13,O=C(NNC(=O)C12CC3CC(CC(Cl)(C3)C1)C2)c1ccncc1,8.24
14,Cc1onc(-c2ccccc2)c1C(=O)N1CCN(S(=O)(=O)c2ccccc2Br)CC1,13.5
15,O=C(CNCCc1ccc(Cl)cc1)Nc1ccc(C(=O)N2CCCCC2)cc1.O=C(O)C(=O)O,11.1
16,O=S(=O)(NCc1ccncc1)c1ccc(S(=O)(=O)NCC2CCCO2)cc1 (stereo not shown),-0.898
17,COc1ccc(CNC(=O)C(c2ccncc2)N(C(=O)Cc2cccs2)c2ccc(C)cc2)cc1 (stereo not shown),3.87
18,Cc1cccc(C)c1OCC(=O)Nc1ccc2c(c1)C(=O)NC2=O,6.98
19,O=C(CCN1C(=O)S/C(=C\c2ccccc2)C1=O)NC1CCS(=O)(=O)C1 (stereo not shown),9.5
20,COc1ccccc1C(CNC(=O)c1ccc(S(=O)(=O)NCc2ccco2)cc1)N(C)C (stereo not shown),2.4
21,O=C1C(=O)N(Cc2cccnc2)C(c2ccccn2)/C1=C(/O)c1ccccc1 (stereo not shown),6.88
22,O=c1cc(-c2ccccc2Cl)oc2c([N+](=O)[O-])c(O)cc(O)c12,10.4

row,Compound,"hERG current change (%, negative = inhibition) at 1uM [%]"
1,COc1ccc(C(=O)N2CCN(c3ccc([N+](=O)[O-])c(-n4nc(C)cc4C)c3)CC2)cc1,-80.6
2,Cc1cc(OC(=O)C2CC2)c([N+](=O)[O-])c(=O)[nH]1,6.45
3,CCNC(=S)NNC(=O)c1cccc(Br)c1,13.8
4,CC(C)C(=O)N1CCN(c2ccc(NC(=S)NC(=O)c3cc4ccccc4o3)cc2)CC1,-0.847
5,Cc1cccc(NC(=O)CC2SC(=O)N(c3ccccc3)C2=O)c1 (stereo not shown),11.4
6,O=C(Nc1ccc(F)cc1)Nc1cccc(Br)c1,9.18
7,O=C(NCCN1CCOCC1)c1cc2n(n1)C(C(F)(F)F)CC(c1ccc(F)cc1)N2 (stereo not shown),5.95
8,S=C(c1ccccc1)N1CCCC1,14.5
9,CC(CCc1ccc(O)cc1)NC1C2CC3CC(C2)CC1C3 (stereo not shown),-0.0399
10,CCOc1ccc(NS(=O)(=O)c2ccc(C(=O)N3CCN(c4ncccn4)CC3)cc2)cc1,3.38
11,CCc1ccc(C(C)NC(=O)Cn2cnc3c(=O)n(C)c(=O)n(C)c32)cc1 (stereo not shown),-1
12,O=C(Nc1cccnc1)c1ccccc1Cl,0.408
13,CCOC(=O)c1[nH]c2ccc(Cl)cc2c1NC(=O)c1nonc1C,12
14,COCCNC(=O)/C(C#N)=C/c1ccc(-c2ccc(OC)cc2[N+](=O)[O-])o1,-6.06
15,COc1ccc(-n2c(CCc3ccccc3)n[nH]c2=S)cc1,15.8
16,Cc1cc(-c2ccco2)n(CC(=O)NCc2ccco2)n1,16.3
17,O=C(O)CC(CC(=O)Nc1nncs1)c1ccccc1 (stereo not shown),8.87
18,CCC1(c2ccc(OC)cc2)NC(=O)N(CC(=O)c2ccc3c(c2)OCCO3)C1=O (stereo not shown),10.7
19,COCCNC(=O)C1Nc2ccc(OC(F)(F)F)cc2C2C=CCC12 (stereo not shown),4.25
20,CC(C)c1c(O)nc(SCC(=O)N2CCOCC2)[nH]c1=O,-2.63
21,FC(F)(F)c1cccc(CNC2CCN(Cc3ccccc3)CC2)c1,11.8
22,CC(=O)C[C@H]1c2cc(C(F)(F)F)ccc2S(=O)(=O)N1C1CCCC1,9.82

row,Compound,"hERG current change (%, negative = inhibition) at 1uM [%]"
1,C=CCOc1ccc(Cl)cc1C(=O)O,7.8
2,Cc1ccc(-c2cn(CCN)c(-c3ccncc3)n2)cc1,1.22
3,CC1Cc2nc(SCC(=O)N3CCCC3)n(C)c(=O)c2S1 (stereo not shown),1.54
4,Cc1ccc(NC(=O)c2ccc(CSc3nnc(-c4ccncc4)n3C)cc2)c(C)c1,4.59
5,CC(=O)c1cccc(CN2CCN(Cc3ccccc3)C(CCO)C2)c1 (stereo not shown),2.26
6,CCOC(=O)Cc1cc(-c2ccc(O)cc2)nc2ccc3ccccc3c12,-2.68
7,CC1C(c2cccs2)=[N+]([O-])C(C)(C(=O)c2cccs2)N1O (stereo not shown),17.5
8,CCOC(=O)c1cc(-c2ccco2)nc2c1c(C)nn2-c1ccccc1,15.1
9,N#Cc1ccccc1OCC(=O)NNC(=O)c1ccncc1,19.1
10,Clc1ccc(CNC23CN4CN(CN(C4)C2)C3)c(Cl)c1,10.3
11,CC(=O)Nc1ccc(CN2CCN(C3CCCCC3)C(CCO)C2)cc1 (stereo not shown),12.7
12,COc1ccccc1/C=N/NC(=O)C(C)Cn1cnc2ccccc21 (stereo not shown),9.28
13,CCC(C)NS(=O)(=O)c1ccc(S(=O)(=O)N(CCc2ccc(OC)c(OC)c2)Cc2cccs2)cc1 (stereo not shown),3.7
14,CN1CCN(c2nc(-c3cccnc3)nc3ccccc23)CC1,3.46
15,COc1ccc(OC)c(NC(=O)CSc2nnnn2C)c1,14.5
16,CCN1CCN(C2=C(NS(=O)(=O)c3ccc(Br)cc3)C(=O)c3ccccc3C2=O)CC1,-25.7
17,Br.Cn1c(=N)n(CC(=O)c2cccs2)c2ccccc21,8.95
18,Cc1noc(NS(=O)(=O)c2ccc(NC(=O)C(C)C)cc2)c1C,16.7
19,COc1cc(O)c(C(CC(=O)N2CCN(c3ccccc3)CC2)c2cc(OC)c(OC)c(OC)c2)c(OC)c1 (stereo not shown),23.2
20,Cc1ccc2nc(NC(=O)CN(C)S(=O)(=O)c3cccc4nsnc34)sc2c1,17.2
21,Cc1onc(-c2ccc(Cl)cc2Cl)c1-c1csc(COc2ccccc2)n1,11.7
22,CCCCOc1cccc(/C=N/NC(=O)c2csc(C)c2C)c1,10.6
